Assay results from PubChem BioAssay AID1460 (National Center for Advancing Translational Sciences (NCATS), 2008).
Several values for one entry are separate records, joined by “and”; a condition that tells them apart may be missing. Equal entries are not always repeated. In all, about 270,000 compounds went through this assay and about 5,800 (2.1%) were called active. The inconclusive results got no clear call from the source; some entries with a clear call stand among them for comparison. Calls come from the whole dose curve; as a rule, active = well fitted inhibition curve with a large enough effect; inconclusive = small, poorly fitted or top-dose-only effect; inactive = flat fitted curve, though single readings scatter. A potency beside an inconclusive call is a rough fit, not a confirmed value.

molecular target: Microtubule-associated protein tau (Homo sapiens) (UniProt P10636); assay: qHTS for Inhibitors of Tau Fibril Formation, Thioflavin T Binding; details: recombinant tau K18 P301L, heparin-induced fibrillization, ThT fluorescence; series mostly up to 57.4 µM; activity, negative = inhibition: at the top concentration; note: nearly all actives have a fitted effect of over 55% in size
UniProt P10636, sequence (P10636 whole entry, looked up): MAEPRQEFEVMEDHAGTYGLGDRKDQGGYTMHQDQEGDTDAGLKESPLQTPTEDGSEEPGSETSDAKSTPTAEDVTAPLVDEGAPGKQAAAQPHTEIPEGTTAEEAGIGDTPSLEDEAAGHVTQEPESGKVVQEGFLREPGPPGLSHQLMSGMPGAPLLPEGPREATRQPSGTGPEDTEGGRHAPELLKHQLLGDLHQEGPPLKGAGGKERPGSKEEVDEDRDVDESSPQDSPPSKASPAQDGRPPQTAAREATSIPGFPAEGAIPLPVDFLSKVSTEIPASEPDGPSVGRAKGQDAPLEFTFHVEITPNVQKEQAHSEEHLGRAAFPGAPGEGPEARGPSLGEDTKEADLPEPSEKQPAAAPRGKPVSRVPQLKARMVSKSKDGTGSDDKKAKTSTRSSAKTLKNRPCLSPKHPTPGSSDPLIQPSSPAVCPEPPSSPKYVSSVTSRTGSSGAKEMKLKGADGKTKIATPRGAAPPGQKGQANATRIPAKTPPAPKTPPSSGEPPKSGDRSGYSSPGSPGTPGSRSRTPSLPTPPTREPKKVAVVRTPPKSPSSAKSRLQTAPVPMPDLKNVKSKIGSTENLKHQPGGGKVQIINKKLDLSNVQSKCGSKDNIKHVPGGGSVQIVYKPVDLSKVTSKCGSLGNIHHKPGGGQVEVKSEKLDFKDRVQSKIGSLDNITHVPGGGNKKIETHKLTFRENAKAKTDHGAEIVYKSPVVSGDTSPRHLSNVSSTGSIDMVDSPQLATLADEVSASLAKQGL
Summary of the method: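 Using a mix of unlabeled (15 uM) and Alexa 594-labeled (0.24 uM) tau K18 P301L, heparin-triggered fibrillization over 6 hr at 37 C was scored by ThT fluorescence.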
% is set by controls: 0 for no effect and ±100 for the full control effect; potency is the fitted concentration of half-maximal effect; tags give direction and shape of the fitted curve.

| SMILES | Potency | activity, negative = inhibition |
| --- | --- | --- |
| Cc1ccc(NC(=O)C2CCN(c3nnc(-n4cccc4)s3)CC2)cc1Cl | inconclusive: 4.47 µM [inhibitor, partial curve, poor fit] |  |
| O=C(N/N=C/C(Cl)=C\c1ccccc1)c1cccs1 | inconclusive: 39.8 µM [activator, single point] |  |
| Cc1onc(-c2ccccc2)c1C(=O)N/N=C/c1cn(C)c2ccccc12 | inconclusive: 28.2 µM [inhibitor, single point] |  |
| O=c1c2c(-c3ccccc3)csc2ncn1/N=C/c1ccc(O)c([N+](=O)[O-])c1 | inconclusive: 25.1 µM [inhibitor, partial curve, poor fit] |  |
| CC(C)C(=O)Nc1ccc(Nc2ccccc2)cc1 | inconclusive: 39.8 µM [inhibitor, partial curve] |  |
| c1cc(CN2CCCCC2)cc(OCCCNc2nc3ccccc3s2)c1 | inconclusive: 0.112 µM [inhibitor, full curve, poor fit] |  |
| O=C(CCc1ccccc1)OCC(=O)c1ccc([N+](=O)[O-])cc1 | inconclusive: 3.55 µM [inhibitor, full curve] |  |
| O=C1c2ccccc2C(=O)N1CCCc1nc2ccccc2c(=O)n1-c1cccnc1 |  | inactive: -11% |
| COc1cc(CN2CCN(S(=O)(=O)c3ccc(NC(C)=O)cc3)CC2)cc(OC)c1O | inconclusive: 17.8 µM [inhibitor, single point] |  |
| CC(=O)Nc1nc(C)c(-c2csc(Nc3ccccn3)n2)s1 | inconclusive: 5.01 µM [inhibitor, full curve] and inconclusive: 2.51 µM [inhibitor, full curve] |  |
| CCO/C(C)=C1\N=C(c2ccc(Cl)cc2)OC1=O |  | inactive: 0.743% |
| CN=C1S/C(=C\c2ccc(N3CCCC3)c(F)c2)C(=O)N1C | inconclusive: 10 µM [inhibitor, partial curve] |  |
| CCc1cc2c(nc1CC)CCN(CC/C(C)=N/O[C@@H](C)c1cc(-c3c(C)cc(C)cc3C)no1)C2 | inconclusive: 15.8 µM [inhibitor, partial curve] |  |
| O=C(CSc1nnnn1-c1ccccc1)Nc1ccc(N2CCOCC2)c(Cl)c1 |  | inactive: -1.18% |
| CC(=O)Nc1ccc(S(=O)(=O)NCCNc2ccccc2[N+](=O)[O-])cc1 | inconclusive: 20 µM [inhibitor, partial curve] |  |
| Cc1ccc(CSC2=NCCN2C(=O)c2ccc([N+](=O)[O-])cc2)cc1 | inconclusive: 15.8 µM [inhibitor, partial curve] |  |
| Cc1ccc2c(c1)-c1c(c(C(=O)NCCc3ccccc3)nn1C)CS2 | inconclusive: 15.8 µM [inhibitor, partial curve] |  |
| O=C(CNC(=O)c1cccs1)N/N=C/c1ccc(O)cc1O |  | inactive: 1.08% |
| Cc1oc(C(C)(C)C)cc1-c1cc(NC(=O)c2ccc([N+](=O)[O-])cc2)n[nH]1 | inconclusive: 1.78 µM [inhibitor, partial curve] |  |
| COC(=O)CSc1nc2ccc(C)cc2cc1C#N | inconclusive: 3.16 µM [inhibitor, full curve] |  |
| O=c1cc(C23CC4CC(CC(C4)C2)C3)[nH][nH]1 | inconclusive: 25.1 µM [inhibitor, single point] |  |
| COC(=O)Cc1c(C)[nH]n(-c2cc(Cl)cc(Cl)c2)c1=O | inconclusive: 15.8 µM [inhibitor, partial curve] |  |

| SMILES | Potency | activity, negative = inhibition |
| --- | --- | --- |
| O=C(OCC(=O)N1c2ccccc2Sc2ccccc21)C1CC(=O)N(Cc2ccco2)C1 (stereo unspecified) | inconclusive: 17.8 µM [inhibitor, partial curve] |  |
| Cc1csc(=Nc2cccnc2)n1Cc1ccco1 |  | inactive: -11.4% |
| COc1ccc(OC)c(C2C(C(=O)c3cc4ccccc4o3)=C(O)C(=O)N2c2cc(C)on2)c1 (stereo unspecified) | inconclusive: 14.1 µM [inhibitor, partial curve] |  |
| C#CCSc1nnc(-c2ccc([N+](=O)[O-])cc2)o1 | inconclusive: 14.1 µM [inhibitor, partial curve] |  |
| O=C(NCCCN1CCOCC1)c1ccccc1 |  | inactive: -12% |
| CN(C)c1cccc(C(=O)n2cc(C(=O)c3cc(F)ccc3O)cn2)c1 | inconclusive: 15.8 µM [inhibitor, partial curve] |  |
| Cc1ccc2c(=O)cc(C(=O)Nc3ccc(S(=O)(=O)Nc4onc(C)c4C)cc3)oc2c1 |  | inactive: -15.9% |
| COc1cccc([C@@H]2Nc3ccc(C(=O)O)cc3[C@@H]3C=CC[C@@H]32)c1OC |  | inactive: -0.058% |
| O=C(/C=C/c1cccs1)c1ccc([N+](=O)[O-])cc1 | inconclusive: 2.51 µM [inhibitor, full curve] |  |
| Fc1ccc(/C=N/c2c(-c3ccc(F)cc3)nc3n2CCS3)cc1 | inconclusive: 10 µM [inhibitor, partial curve] |  |
| Cc1cccc(C(=O)Nc2ccccc2N2CCN(c3ccc(F)cc3)CC2)c1 | inconclusive: 6.31 µM [inhibitor, partial curve] |  |
| c1ccc(Oc2cccc(OCCn3cncn3)c2)cc1 |  | inactive: -1.02% |
| CS(=O)(=O)N1CCN(c2ccc(NC(=O)c3ccc([N+](=O)[O-])o3)cc2)CC1 | inconclusive: 5.62 µM [inhibitor, partial curve] |  |
| COc1c(Br)cc(Br)cc1/C=C1/C(=O)N=C(N)N1C |  | inactive: -10.5% |
| O=C(NCCc1ccccc1)NC1CCCCC1 |  | inactive: -3.85% |
| CC(OC(=O)c1ccncc1)C(=O)Nc1ccc([N+](=O)[O-])cc1Cl (stereo unspecified) |  | inactive: -4.99% |
| CCCOc1ccc(N2C(=O)CC(NCCNc3ccc([N+](=O)[O-])cn3)C2=O)cc1 (stereo unspecified) | inconclusive: 12.6 µM [inhibitor, partial curve, poor fit] |  |
| COc1ccc(/C=N\Nc2ccccc2[N+](=O)[O-])c(C(=O)O)c1OC | inconclusive: 15.8 µM [inhibitor, partial curve] |  |
| O=C(NNC(=O)C(Cl)Cl)c1cnn(-c2ccccc2)c1C(F)(F)F | inconclusive: 20 µM [inhibitor, partial curve] |  |
| CCOc1c(O)ccc(C2NC(=O)NC(C)=C2C(=O)OC)c1[N+](=O)[O-] (stereo unspecified) | inconclusive: 5.62 µM [inhibitor, partial curve] |  |
| O=C(Nc1ccc(N2CCCC2)cc1)c1cccc(F)c1 | active: 12.6 µM |  |
| COc1ccc(N2CCN(CC(O)COc3ccc(C(C)C)c(C)c3)CC2)cc1 (stereo unspecified) | inconclusive: 12.6 µM [inhibitor, partial curve] |  |

| SMILES | Potency | activity, negative = inhibition |
| --- | --- | --- |
| COc1ccc2nc3oc(C(=O)N(C)c4ccc(Cl)cc4)cc3cc2c1 | inconclusive: 0.251 µM [inhibitor, full curve] |  |
| CCN1CCc2c(sc3c2c(NCc2ccco2)nc2nnnn23)C1 | inconclusive: 12.6 µM [inhibitor, partial curve] |  |
| CC(C)Oc1ccc(C(=O)Nc2ccc(N(C)C)cc2)cc1 | inconclusive: 5.01 µM [inhibitor, partial curve] |  |
| O=C(Cn1ncc(Cl)c(Cl)c1=O)NCC1CCCCC1 | inconclusive: 35.5 µM [inhibitor, single point] |  |
| COc1ccc(N2Cc3ccccc3C2=NC(=O)c2cccc([N+](=O)[O-])c2)cc1 | inconclusive: 11.2 µM [inhibitor, partial curve] |  |
| O=c1oc(-c2cc3ccccc3o2)nc2sc3c(c12)CCCC3 | inconclusive: 2.82 µM [inhibitor, full curve] |  |
| NC1=NC(=Nc2ccc(Br)cc2)c2ccccc21 | inconclusive: 20 µM [inhibitor, single point] |  |
| CCOC(=O)N1CCc2c(sc3c2C(=O)NC(c2ccccc2)N3)C1 (stereo unspecified) | active: 28.2 µM |  |
| N#Cc1c(C(F)(F)F)cc(-c2ccc(Cl)c(Cl)c2)nc1SCCN1CCOCC1 |  | inactive: -18.2% |
| O=c1c(-c2cnn(-c3ccccc3)c2)coc2cc(O)ccc12 | inconclusive: 35.5 µM [activator, single point] |  |
| O=C(Oc1cccc2c(O)cccc12)c1ccccc1 | inconclusive: 22.4 µM [inhibitor, partial curve] |  |
| O=C(CNc1ccc2ccccc2c1)N/N=C/c1ccc(C(=O)O)cc1 | inconclusive: 15.8 µM [inhibitor, partial curve] |  |
| Cc1cccc(C(=O)N2CCC(=O)N(C(COCc3cccc(C(F)(F)F)c3)Cc3ccccc3)CC2)c1 (stereo unspecified) | inconclusive: 22.4 µM [inhibitor, partial curve] |  |
| O=C(Nc1cc(S(=O)(=O)N2CCCCC2)ccc1Cl)c1ccccc1NS(=O)(=O)c1ccc(F)cc1 | inconclusive: 22.4 µM [inhibitor, single point] |  |
| CCNc1sc(C(=O)c2cccs2)c(N)c1-c1nc2ccccc2s1 | active: 8.91 µM |  |
| COC(=O)c1cccc(COC(=O)c2ccccc2NC(=O)c2ccco2)c1 | inconclusive: 15.8 µM [inhibitor, single point] |  |
| Cc1cccc(/N=C/c2nc(-c3ccccc3Br)oc2O)n1 | inconclusive: 3.16 µM [inhibitor, partial curve] |  |
| COc1cccc(-c2nnc(-c3ccc(C(F)(F)F)cc3)o2)c1 |  | inactive: -12.3% |
| CCCCc1nc(S(=O)(=O)c2ccc(Cl)cc2)c(N2CCOCC2)o1 | inconclusive: 35.5 µM [inhibitor, single point] |  |
| O=C(Cn1c(=O)n(-c2ccccc2)c(=O)c2c3c(sc21)CCCC3)Nc1ccccc1 | inconclusive: 39.8 µM [activator, single point] |  |
| O=C(N/N=C/c1ccco1)c1ccc(OCc2ccccc2)cc1 | inconclusive: 2.82 µM [inhibitor, partial curve, poor fit] |  |
| CCN1CCN(CCNC(=O)c2ccc(/C=C3/Sc4ccccc4N(Cc4ccccc4C)C3=O)cc2)CC1 | inconclusive: 39.8 µM [inhibitor, single point] |  |
